Some of the results follow.

Here are results for 31 sequences from article PMC12820563, “FoxP3 forms a head-to-head dimer in vivo and stabilizes its multimerization on adjacent microsatellites”.

For this assay, the target named is T1, MBP-FoxP1dN (Mus musculus, UniProt P58462 326-579).
T1 sequence: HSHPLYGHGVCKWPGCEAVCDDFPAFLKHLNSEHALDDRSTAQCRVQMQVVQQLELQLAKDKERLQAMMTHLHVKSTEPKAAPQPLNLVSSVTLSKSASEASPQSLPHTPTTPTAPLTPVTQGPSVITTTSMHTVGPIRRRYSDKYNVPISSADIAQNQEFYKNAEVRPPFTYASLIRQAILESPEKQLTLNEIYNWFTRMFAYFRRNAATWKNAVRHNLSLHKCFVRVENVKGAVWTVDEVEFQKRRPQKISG
Kind of assay: PD-seq (MBP pull-down with sequencing); 20 mM Tris-HCl pH 7.5, 100 mM NaCl, 1.5 mM MgCl2, 0.4 uM protein, 0.1 uM dsDNA library, 30 min, room temperature, amylose pull-down; high values mean tight binding. Particulars: protein: recombinant; tags: His6-MBP; chain copies: 2; dsDNA, one strand shown. An outline of the steps:
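Binding is given as reads-per-million enrichment, pull-down over input, with replicates pooled. The bait was an N-terminus-lacking mouse FoxP3 or FoxP1 fragment with a His6-MBP tag, expressed in E. coli and used at 0.4 µM with 0.1 µM Klenow-filled degenerate double-stranded DNA library for 30 min at room temperature in Tris pH 7.5 buffer with NaCl and MgCl2. Amylose resin pull-down with three washes was followed by proteinase K release, PCR barcoding and Illumina sequencing.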
Regarding “GATGATTGTTCTCCCAGCTGATGAATTAAGTAGGTCGAGTAAACAAATTTTCCTAATCTTTCTGTTCAAGCGCCATCTAC”, the binding signal was 0.924 RPM ratio (pull-down/input). As for “GATGATTGTTCTCCCAGCTGATGAATTGTGCCGGTCGAGTAAACAAATTTTCCTAATCTTTCTGTTCAAGCGCCATCTAC”, the binding signal was 0.899 RPM ratio (pull-down/input). Next, “GATGATTGTTCTCCCAGCTGATGAATTTGTAGTCTCGAGTAAACAAATTTTCCTAATCTTTCTGTTCAAGCGCCATCTAC”: 1.05 RPM ratio (pull-down/input). With “GATGATTGTTCTCCCAGCTGATGAATTCAACTACTCGAGTAAACAAATTTTCCTAATCTTTCTGTTCAAGCGCCATCTAC”, the binding signal is 0.92 RPM ratio (pull-down/input).

Turning to “GATGATTGTTCTCCCAGCTGATGAATTGGTTCACTCGAGTAAACAAATTTTCCTAATCTTTCTGTTCAAGCGCCATCTAC”, the binding signal is 0.937 RPM ratio (pull-down/input). Next, “GATGATTGTTCTCCCAGCTGATGAATTTCGCGGATCGAGTAAACAAATTTTCCTAATCTTTCTGTTCAAGCGCCATCTAC”: 0.795 RPM ratio (pull-down/input); “GATGATTGTTCTCCCAGCTGATGAATTGTCTCATTCGAGTAAACAAATTTTCCTAATCTTTCTGTTCAAGCGCCATCTAC”: 1.04 RPM ratio (pull-down/input); “GATGATTGTTCTCCCAGCTGATGAATTGCAGCCCTCGAGTAAACAAATTTTCCTAATCTTTCTGTTCAAGCGCCATCTAC”: 0.995 RPM ratio (pull-down/input). As for “GATGATTGTTCTCCCAGCTGATGAATTGGAGTGCTCGAGTAAACAAATTTTCCTAATCTTTCTGTTCAAGCGCCATCTAC”, the binding signal is 0.879 RPM ratio (pull-down/input). For the sequence “GATGATTGTTCTCCCAGCTGATGAATTCGCCATGTCGAGTAAACAAATTTTCCTAATCTTTCTGTTCAAGCGCCATCTAC”, the binding signal was 0.809 RPM ratio (pull-down/input). For “GATGATTGTTCTCCCAGCTGATGAATTAACCATGTCGAGTAAACAAATTTTCCTAATCTTTCTGTTCAAGCGCCATCTAC”, the binding signal was 0.832 RPM ratio (pull-down/input). In the case of “GATGATTGTTCTCCCAGCTGATGAATTGAGGCCTTCGAGTAAACAAATTTTCCTAATCTTTCTGTTCAAGCGCCATCTAC”, the binding signal is 0.914 RPM ratio (pull-down/input). Take “GATGATTGTTCTCCCAGCTGATGAATTCGGGGCCTCGAGTAAACAAATTTTCCTAATCTTTCTGTTCAAGCGCCATCTAC”: the binding signal was 0.744 RPM ratio (pull-down/input). In the case of “GATGATTGTTCTCCCAGCTGATGAATTGTGTTGCTCGAGTAAACAAATTTTCCTAATCTTTCTGTTCAAGCGCCATCTAC”, the binding signal was 1.57 RPM ratio (pull-down/input).

On to “GATGATTGTTCTCCCAGCTGATGAATTCACGCTCTCGAGTAAACAAATTTTCCTAATCTTTCTGTTCAAGCGCCATCTAC”, for which the binding signal is 1.01 RPM ratio (pull-down/input). As to “GATGATTGTTCTCCCAGCTGATGAATTAATAGCTTCGAGTAAACAAATTTTCCTAATCTTTCTGTTCAAGCGCCATCTAC”, the binding signal was 1.01 RPM ratio (pull-down/input). Regarding “GATGATTGTTCTCCCAGCTGATGAATTGTAAGCGTCGAGTAAACAAATTTTCCTAATCTTTCTGTTCAAGCGCCATCTAC”, the binding signal is 1.03 RPM ratio (pull-down/input). Next, “GATGATTGTTCTCCCAGCTGATGAATTATAGTCCTCGAGTAAACAAATTTTCCTAATCTTTCTGTTCAAGCGCCATCTAC”: 0.883 RPM ratio (pull-down/input); “GATGATTGTTCTCCCAGCTGATGAATTAGCTGAATCGAGTAAACAAATTTTCCTAATCTTTCTGTTCAAGCGCCATCTAC”: 0.949 RPM ratio (pull-down/input); “GATGATTGTTCTCCCAGCTGATGAATTCTGTGGTTCGAGTAAACAAATTTTCCTAATCTTTCTGTTCAAGCGCCATCTAC”: 0.982 RPM ratio (pull-down/input). Turning to “GATGATTGTTCTCCCAGCTGATGAATTTCCAGGATCGAGTAAACAAATTTTCCTAATCTTTCTGTTCAAGCGCCATCTAC”, the binding signal was 0.804 RPM ratio (pull-down/input). Next, “GATGATTGTTCTCCCAGCTGATGAATTGTTGCTATCGAGTAAACAAATTTTCCTAATCTTTCTGTTCAAGCGCCATCTAC”: 1.72 RPM ratio (pull-down/input); “GATGATTGTTCTCCCAGCTGATGAATTAATTACTTCGAGTAAACAAATTTTCCTAATCTTTCTGTTCAAGCGCCATCTAC”: 1.18 RPM ratio (pull-down/input); “GATGATTGTTCTCCCAGCTGATGAATTGGCCTGTTCGAGTAAACAAATTTTCCTAATCTTTCTGTTCAAGCGCCATCTAC”: 0.821 RPM ratio (pull-down/input). For the sequence “GATGATTGTTCTCCCAGCTGATGAATTTAGCTTATCGAGTAAACAAATTTTCCTAATCTTTCTGTTCAAGCGCCATCTAC”, the binding signal was 1.15 RPM ratio (pull-down/input).

With “GATGATTGTTCTCCCAGCTGATGAATTCAAGGGCTCGAGTAAACAAATTTTCCTAATCTTTCTGTTCAAGCGCCATCTAC”, the binding signal was 0.745 RPM ratio (pull-down/input).

Consider “GATGATTGTTCTCCCAGCTGATGAATTTCTGTCGTCGAGTAAACAAATTTTCCTAATCTTTCTGTTCAAGCGCCATCTAC”, for which the binding signal was 0.96 RPM ratio (pull-down/input). Take “GATGATTGTTCTCCCAGCTGATGAATTTAGGGATTCGAGTAAACAAATTTTCCTAATCTTTCTGTTCAAGCGCCATCTAC”: the binding signal was 0.973 RPM ratio (pull-down/input). Take “GATGATTGTTCTCCCAGCTGATGAATTGCTTCAGTCGAGTAAACAAATTTTCCTAATCTTTCTGTTCAAGCGCCATCTAC”: the binding signal was 1 RPM ratio (pull-down/input). Next, “GATGATTGTTCTCCCAGCTGATGAATTGAACGCTTCGAGTAAACAAATTTTCCTAATCTTTCTGTTCAAGCGCCATCTAC”: 0.864 RPM ratio (pull-down/input). As to “GATGATTGTTCTCCCAGCTGATGAATTGCCACTTTCGAGTAAACAAATTTTCCTAATCTTTCTGTTCAAGCGCCATCTAC”, the binding signal was 1.1 RPM ratio (pull-down/input).
